Out of some 360,000 compounds screened, about 7,500 (2.1%) were called active. The inconclusive results got no clear call from the source; some entries with a clear call stand among them for comparison. The call rests on the fitted dose curve; in most records, active means well fitted cell-killing curve with a large enough effect; inconclusive means small, poorly fitted or top-dose-only effect, or effect the other way, or another doubt; inactive means no such curve, though single readings can be large or run the other way. No potency is given beside an inconclusive call; the fits are too rough.
Experiment: qHTS for induction of synthetic lethality in tumor cells producing 2HG: qHTS for the HT-1080-IDH1KD cell line
Details: HT-1080 IDH1 knockdown viability, ATP luminescence, 48 h; series mostly up to 46.1 µM
Procedure, shortened: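 After a 2 h attachment period, IDH1KD HT-1080 cells took pin-transferred compound for 48 h at 37 °C; ATP-based luminescence after 10 min room-temperature reagent incubation reported viability.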
Potency means the concentration at half of the fitted maximal effect; tags describe the fitted curve by direction and shape.

SMILES | Potency
C[C@H]1C[C@@H]2[C@H]([C@@H](O)C[C@@]3(C)[C@H]2CC[C@]3(O)C(=O)CO)[C@@]2(C)C=CC(=O)C=C12 | inconclusive [rising, full curve, poor fit]
Cc1ccc(NC(=O)[C@H](Cc2c[nH]c3ccccc23)NC(=O)[C@@H]2Cc3ccccc3CN2)c(C)c1 | inconclusive [cytotoxic, full curve]
COc1cccc(OCC(=O)N(Cc2nc(-c3ccc(Cl)cc3)no2)C(C)C)c1 | inconclusive [cytotoxic, partial curve]
Cc1cc(O)c(C(C)C)cc1NC(=O)Nc1ccc([N+](=O)[O-])cc1 | inconclusive [cytotoxic, partial curve]
Cc1ccc(NC(=O)CN(C)S(=O)(=O)c2cccc3nsnc23)cc1C | inactive
COc1ccc(NC(=O)C2Cc3ccccc3O/C2=N\O)cc1 (centres undefined) | inactive
ClC(Cl)(c1nnnn1-c1ccccc1)c1nnnn1-c1ccccc1 | active: 6.51 µM
CCOC(=O)c1c(CSc2cccs2)n(C)c2cc(Br)c(O)c(CN(C)C)c12 | inconclusive [cytotoxic, single point]
Cc1cc(=O)oc2cc(NC(=O)C(C)Oc3cccc(Cl)c3)ccc12 (centres undefined) | inconclusive [cytotoxic, single point]
O=C(NC1CCCC1)C(c1ccccc1)n1c(-c2ccc3c(c2)CCO3)nc2ccccc21 (centres undefined) | inconclusive [cytotoxic, single point]
COc1ccc(-c2cc3nc(-c4ccccc4)cc(N4CCN(C(C)=O)CC4)n3n2)cc1 | active: 16.4 µM
CCN(CC(=O)Nc1ccc2c(c1)OCCO2)c1nc(-c2cccnc2)nc2ccccc12 | inactive
O=C(NCCCn1ccnc1)c1cc(-c2cccs2)on1 | inconclusive [cytotoxic, partial curve]
Fc1ccc2cnc(-c3ccccc3)c(-c3ccc(C(F)(F)F)cc3)c2c1 | inactive
COc1ccc(OC)c(-c2csc(NC(=O)Cc3ccc(F)cc3)n2)c1 | inconclusive [cytotoxic, single point]
Cc1nc(-c2coc3cc(O)c(C)cc3c2=O)cs1 | active: 23.1 µM
Cc1cccnc1NC(=O)c1ccc(S(=O)(=O)N2CCCCCC2)cc1 | inactive
COc1ccc(CC(N)c2csc(NC(=O)NCCc3ccccc3)n2)cc1 (centres undefined) | inconclusive [cytotoxic, single point]
CC(=O)O[C@H]1C(=O)[C@@]2(C)C([C@H](OC(=O)c3ccccc3)[C@]3(O)C[C@H](OC(=O)[C@H](O)[C@@H](NC(=O)c4ccccc4)c4ccccc4)C(C)=C1C3(C)C)[C@]1(OC(C)=O)CO[C@@H]1C[C@H]2O (some centres undefined) | active: 0.184 µM
Cc1sc2ncnc(N3CCC(C(=O)N(C)CC(=O)Nc4ccc(Cl)c(C(F)(F)F)c4)CC3)c2c1C | active: 16.4 µM
CCOC(=O)C(=Cc1ccc(-n2ccnc2)cc1)C(=O)OCC | active: 5.8 µM
S=C(NCc1cccs1)Nc1cc(Cl)cc(Cl)c1 | inconclusive [cytotoxic, single point]

SMILES | Potency
C/C(=N\NC(=O)COc1ccccc1-c1ccccc1)c1ccc(O)cc1O | inconclusive [cytotoxic, single point]
N#Cc1ccc(CSc2nnc(-c3ccccc3)n2Cc2ccco2)cc1 | inconclusive [cytotoxic, single point]
O=S(=O)(NC1=NCCC1)c1cccs1 | inconclusive [rising, single point]
COC(=O)N1CCN(c2ccc(Cl)c(Cl)c2)CC1 | inactive
Cc1nn(-c2ccccc2)c2nc3c(cc12)C(=O)CCC3 | inconclusive [cytotoxic, full curve, poor fit]
CC(C)C[C@H](NC(=O)Nc1ccc(Oc2ccccc2)cc1)C(=O)O | inactive
CN(C)c1nc(NCc2ccccc2)nc(SCC(=O)Nc2ccccc2)n1 | inconclusive [cytotoxic, single point]
CCOc1cc(/C=N/NC(=O)c2ccc(NC(=O)C3CC3)cc2)ccc1O | inactive
O=C1C(Cc2c[nH]c3ccccc23)NC(=S)N1C1CCCCC1 (centres undefined) | inconclusive [cytotoxic, single point]
Cc1ccccc1OCC(=O)N1N=C(C(F)(F)F)CC1(O)C(C)(C)C (centres undefined) | inconclusive [cytotoxic, single point]
N#C/C(=C\c1cccnc1)C(=O)Nc1cccc2ccccc12 | active: 20.6 µM
COc1ccccc1-c1ncn(Cc2cccc(-c3ccccc3)c2)c1CC(C)C | inconclusive [cytotoxic, single point]
COc1cccc(C2C(C#N)=C(N)Oc3cc(N)ccc32)c1OC (centres undefined) | inactive
O=C(Nc1nc(-c2ccc(F)c(F)c2)cs1)c1ccc(OCC2CCCO2)cc1 (centres undefined) | inconclusive [cytotoxic, single point]
Cc1ccc(/C=N/N2CCN(Cc3ccccc3)CC2)o1 | inconclusive [cytotoxic, single point]
CC1(C)Cc2c(sc3c2c(=N)n(Cc2ccco2)c(=O)n3CC(=O)Nc2ccc(Cl)cc2)CO1 | inconclusive [cytotoxic, single point]
O=[N+]([O-])c1ccc(Sc2nnnn2-c2ccccc2)nc1 | active: 20.6 µM
Cn1c(C(=O)NN)cc2cc(OCc3ccccc3)ccc21 | inactive
Cc1ccc(-c2cnc(C(O)c3ccc(Cl)c(Cl)c3)[nH]2)cc1 (centres undefined) | inconclusive [cytotoxic, single point]
C[C@]12C(=O)N(c3cccc(F)c3)C(=O)N1[C@H]1c3ccccc3OC[C@@H]1[C@H]2c1ccccc1 | inactive
CCc1cccc2c(C(=O)COC(=O)/C=C/c3ccc(O)c(OC)c3)c[nH]c12 | inconclusive [cytotoxic, single point]
CN(/N=C\c1ccc(O)c(O)c1)c1nc(-c2ccccc2)cc(-c2ccccc2)n1 | inconclusive [cytotoxic, single point]
